Source: PubChem BioAssay AID488969 (Vanderbilt High Throughput Screening Facility, 2010)
The full ranking holds about 110,000 compounds; the median of “z-score” is about -0.1, and the highest 2% start at about 2. The list shows a part of the results. Active and inactive are the calls of the source.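 Rule for the calls: active = z-score in the third read window above 3 or below -3; inactive = the rest.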

Molecular target: Metabotropic glutamate receptor 8 (Rattus norvegicus) (UniProt P70579)
Experiment: rat mGluR8 modulators via GIRK flux, primary screen, cell-based, thallium flux, HTS (AID 488969)
Conditions: HEK293 rat mGluR8, GIRK (G protein-gated inwardly rectifying potassium channel) thallium flux, FluoZin2; at 10 µM; stronger effect = higher value; submaximal glutamate (EC20) added with thallium

Chain of UniProt P70579 (P70579 whole entry, looked up): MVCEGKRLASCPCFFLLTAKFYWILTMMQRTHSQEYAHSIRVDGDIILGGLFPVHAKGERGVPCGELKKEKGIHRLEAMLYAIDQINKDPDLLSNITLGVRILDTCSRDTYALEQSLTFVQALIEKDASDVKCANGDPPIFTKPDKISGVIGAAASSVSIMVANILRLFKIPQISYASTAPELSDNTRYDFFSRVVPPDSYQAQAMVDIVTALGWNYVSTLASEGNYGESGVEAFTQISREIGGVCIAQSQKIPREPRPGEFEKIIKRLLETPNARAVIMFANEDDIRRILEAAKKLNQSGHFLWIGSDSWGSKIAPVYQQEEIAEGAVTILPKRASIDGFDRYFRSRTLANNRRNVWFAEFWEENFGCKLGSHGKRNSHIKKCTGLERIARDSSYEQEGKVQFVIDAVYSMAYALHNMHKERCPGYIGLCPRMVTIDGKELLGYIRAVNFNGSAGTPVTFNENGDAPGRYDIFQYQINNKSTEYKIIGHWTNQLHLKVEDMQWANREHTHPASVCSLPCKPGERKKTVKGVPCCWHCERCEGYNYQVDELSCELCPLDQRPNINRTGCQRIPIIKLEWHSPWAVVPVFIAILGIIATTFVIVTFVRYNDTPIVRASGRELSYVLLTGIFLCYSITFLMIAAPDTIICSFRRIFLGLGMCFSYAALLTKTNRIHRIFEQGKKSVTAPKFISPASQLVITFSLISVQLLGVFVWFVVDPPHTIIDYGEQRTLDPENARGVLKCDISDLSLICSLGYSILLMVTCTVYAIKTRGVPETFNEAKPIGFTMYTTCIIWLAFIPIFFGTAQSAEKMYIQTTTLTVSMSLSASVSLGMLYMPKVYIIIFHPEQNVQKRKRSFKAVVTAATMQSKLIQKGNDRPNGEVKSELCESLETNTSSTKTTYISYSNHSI

SMILES	z-score
CC(C)[C@H](NC(=O)c1ccccc1)C(=O)OCC(=O)/C=C1/N(C)c2ccccc2C1(C)C	-0.699
O=C(O)c1ccc(/C=N/NC(=O)c2ccc(Br)cc2)cc1	0.0326
C=CCN(CC=C)C(=O)C(=O)c1cc(C)n(-c2ccc([N+](=O)[O-])cc2)c1C	0.767
CCC(C)NS(=O)(=O)c1ccc(OCC(=O)NCC2CCCO2)cc1 (stereo not drawn)	-0.341
Cc1ccc(C(=O)/C=C\C(=O)c2ccc(C)cc2)cc1	-0.118
COc1ccccc1NC(=O)CSc1nnc(Cc2cccn2C)n1-c1ccc(F)cc1	-0.461
O=C(Nc1ccc(Cl)cc1)c1ccsn1	-0.264
CC(/C=N/N1CCN(c2ccccn2)CC1)=C\c1ccccc1	-0.329
Cc1c(NC(=O)C2CCCNC2=O)c(=O)n(-c2ccccc2)n1C (stereo not drawn)	0.0924
CCCCOC(=O)CSc1nc(N)c(C#N)c(-c2ccc(OCC)cc2)c1C#N	0.05
Cc1ccc(SCc2nc3ccccc3n2CC(=O)Nc2ccccc2)cc1	-0.21
CC(C)C(C)(C#N)NC(=O)CSc1nc(C2CCCCC2)n(-c2ccccc2)n1 (stereo not drawn)	-0.0651
CCOc1ccc(N2CC(C(=O)NCc3cccc(C)c3)CC2=O)cc1 (stereo not drawn)	-0.0878
O=C(CCSc1nc(-c2ccco2)cc(C(F)(F)F)n1)Nc1ccc2c(c1)OCO2	-1.34
CCOc1ccccc1CNS(=O)(=O)c1ccc2c(c1)oc(=O)n2C	-0.853
CC1Cc2ccccc2N1C(=O)CSc1nnc(CNc2ccccc2)o1 (stereo not drawn)	-0.151
COc1ccc(C(=O)NNC(=O)c2ccccn2)cc1	-0.0844
CCSc1nnc(NC(=O)c2cccc(S(=O)(=O)N(C)c3ccccc3)c2)s1	-0.44
CCCCCc1nc2ccccc2c(=O)n1NC(=O)c1c(O)c2cccc3c2n(c1=O)CCC3	0.392
Cc1c(C2(O)C(=O)Nc3ccc(F)cc32)c(=O)n(-c2ccccc2)n1C (stereo not drawn)	0.42
c1ccc2c(c1)oc1c(Nc3ccc4c(c3)OCO4)ncnc12	0.0202
COc1cc(/C=N/NC(N)=S)ccc1OCC(=O)Nc1ccc(C)c(C)c1	-0.102

SMILES	z-score
CCCc1cc(=O)[nH]c(SCC(=O)N2CCN(S(=O)(=O)c3ccc(C)cc3C)CC2)n1	0.128
Cc1ccc(OCC(=O)NNC(=O)CSc2nnc(-c3ccc(C)cc3)n2C)cc1	0.0512
O=C(Nc1ccccc1C(=O)Nc1ccc2c(c1)OCO2)c1cccs1	0.573
Cc1sc2ncnc(SCC(=O)NC(=O)NCc3ccco3)c2c1C	2.66
COC(=O)N/N=C/c1cn(Cc2ccc(Cl)cc2Cl)c2ccccc12	-0.119
CCn1ncc(Br)c1C(=O)Nc1ccc(F)cc1F	1.02
CC1CC(C)(C)N2C(=O)C3(Nc4ccccc4S3)c3cccc1c32 (stereo not drawn)	-0.401
Cn1c(=O)c2c(nc(CN3CCc4ccccc4C3)n2Cc2ccc(Cl)cc2)n(C)c1=O	0.185
COc1ccccc1C1CN=NC12CCCc1ccccc1C2=O (stereo not drawn)	0.0169
CC(=O)/C(=N/Nc1cccc(Cl)c1)N1CCOCC1	-0.211
CCc1nc2ccc(C(=O)Nc3cccc(C(C)=O)c3)cc2nc1CC	-0.283
Cc1nc2c(C(=O)NCc3cccs3)cnn2c(C)c1Cc1ccc(F)cc1	-0.267
COC(=O)C1CCN(CC(N)=O)CC1	-0.348
CC1(C)CC(=O)C2=C(C1)C(c1cn(-c3ccccc3)nc1-c1ccccc1)C(C#N)=C(N)O2 (stereo not drawn)	-0.419
O=C(Nc1ccc(N2C(=O)C3C4C=CC(C4)C3C2=O)cc1)Nc1nnc(C(F)(F)F)s1 (stereo not drawn)	0.0495
Cc1c(Cl)cccc1NC(=O)C1Cc2ccccc2CN1C(=O)c1ccccc1 (stereo not drawn)	-0.428
CCc1ccc(N2C(=O)C(Cl)=C(N3CCOCC3)C2=O)cc1	-0.428
O=C(c1ccc2c(c1)OCCO2)C1CCN(C(=O)c2ccc(F)cc2)CC1	-0.759
Cc1nn(C)c(C(=O)NNC(=S)NCc2ccco2)c1Cl	0.7
O=C(CCCN1C(=O)/C(=C\c2cccs2)SC1=S)Nc1cccnc1	-0.171
CCc1nc(SCC(=O)c2cccs2)c2oc3ccccc3c2n1	0.0688
CC(=O)Nc1ccc(S(=O)(=O)NCC2CCC(C(=O)NCCC3=CCCCC3)CC2)cc1 (stereo not drawn)	-0.553

SMILES	z-score
COC(=O)C(O)(CC(=O)Nc1cccc(SC)c1)C(F)(F)F (stereo not drawn)	0.0313
COC(=O)c1c(NC(=O)Cc2ccccc2)sc(C)c1C	-0.12
CNC(=O)c1cc2cc(OC)ccc2oc1=O	-0.746
CCOC(=O)C1/C(=N\O)CC(C)(O)C(C(=O)OCC)C1c1ccc(N(C)C)cc1 (stereo not drawn)	1.02
O=C(CSc1nccn1-c1ncc(C(F)(F)F)cc1Cl)c1ccc(Br)cc1	-0.34
CC(C)Cc1nnc(NC(=O)CCC(=O)Nc2ccc(F)cc2)s1	1.22
Cc1nnc(SCC(=O)N2CCC(C(=O)Nc3nccs3)CC2)n1Cc1ccccc1	-0.23
CC1(c2ccc3c(c2)OCO3)NC(=O)N(CC(=O)Nc2ccc(N3CCOCC3)cc2)C1=O (stereo not drawn)	-0.0366
CC(=O)Nc1nc(NC(=O)/C=C/c2ccccc2)n(-c2ccccc2)n1	-0.149
CC(C)[C@H](NC(=O)Nc1ccccc1F)C(=O)O	-0.164
CCCCCCNC(=O)CC(c1ccccc1)c1cc(Br)ccc1O (stereo not drawn)	-0.137
CC1(C)Cc2nc(NCCCO)c(C#N)cc2CO1	2.93
CCOc1ccc(C(=O)NC(=S)Nc2ccc(NC(=O)c3ccco3)c(C)c2)cc1[N+](=O)[O-]	-0.187
Cc1cccc2cc(C(c3nnnn3C(C)(C)C)N(Cc3ccco3)CC3CCCO3)c(=O)[nH]c12 (stereo not drawn)	-0.222
Cc1ccc(C2=NNC(C(O)C(O)C(O)C(O)CO)S2)cc1 (stereo not drawn)	0.187
O=C(O)CN1C(=O)NC2NC(=O)NC21 (stereo not drawn)	-0.238
Oc1ccc(-c2nc3c4c(ncn3n2)-c2ccccc2CC42CCCC2)cc1	-0.239
Cc1cc(NC(=O)c2cc(-c3ccccc3)on2)n(-c2ccccc2)n1	0.353
Cc1ccc(S(=O)(=O)N2CCN(c3nc(C)nc4sc5c(c34)CCC(C)C5)CC2)cc1 (stereo not drawn)	0.0765
Cc1nc2nc(SCC(=O)c3ccc([N+](=O)[O-])cc3)[nH]c2cc1Br	-0.471
Cn1c(C(=O)N2CCN(Cc3ccccc3)CC2)cc2c(=O)n(C)c3ccccc3c21	-0.786
O=C(Nc1cccc(F)c1)c1ccc(CSc2ccccc2)o1	-0.331

SMILES	z-score
COc1ccc(NC(=O)CC(C)C)c([N+](=O)[O-])c1	-0.11
COc1cc(-c2nc3ccccc3s2)ccc1O	-0.238
N#Cc1ccc(OCC(=O)OCC(=O)NCCC2=CCCCC2)cc1	-1
CCC(=O)NC(c1cccs1)c1cc([N+](=O)[O-])c2cccnc2c1O (stereo not drawn)	-0.0253
CC(C)NC(=O)c1ccccc1NC(=O)/C=C/c1ccc([N+](=O)[O-])cc1	-0.137
COc1cc(/C=N/n2cnc3scc(-c4cccs4)c3c2=O)cc(OC)c1OC	-0.232
CCOc1ccc(NC(=O)c2ccc(CNc3c(NC4CCCCC4)c(=O)c3=O)cc2)cc1	1.02
O=C(NC1CCCCCCC1)C1CCCN(S(=O)(=O)c2cnc[nH]2)C1 (stereo not drawn)	-0.107
O=C(NC(=S)N1CCN(C/C=C/c2ccccc2)CC1)c1c(F)cccc1F	1.73
Cc1cc(C)c(C)c(S(=O)(=O)N2C(=S)NC(=O)C2CC(C)C)c1C (stereo not drawn)	0.844
O=[N+]([O-])/C(C(Cl)=C(Cl)Cl)=C(\Nc1ccc(F)cc1)n1cncn1	-0.0258
O=c1cc(-c2c(F)c(F)c(F)c(F)c2F)oc2ccccc12	0.222
CC(=O)NC(=S)Nc1ccccc1C(=O)Nc1ccccc1	-0.172
CCn1cnc2scc(-c3ccccc3)c2c1=O	-0.164
Cc1cc(C)c2nc(SCCc3ccccc3)nc(C)c2c1	-0.131
Clc1ncnc2scc(-c3ccccc3)c12	-0.029
CCN1CCN(CCCNC(=O)Cn2cc3c(n2)CCCC3)CC1	-0.235
CCCCOC(=O)c1ccc(S(N)(=O)=O)o1	-0.13
O=C(Nc1nccs1)c1ccc(Cl)s1	0.227
COc1ccc(OCCOCCN2CCOCC2)cc1	0.0364
Cc1ccsc1-c1nc(CSCC(=O)NCc2ccc3c(c2)OCO3)c(C)o1	-0.802
CCc1nn(-c2ccccc2)c2c1-c1cc(OC)c(OC)cc1C1(N2)C(=O)Nc2ccccc21 (stereo not drawn)	-2.07

SMILES	z-score
CCOC(=O)N1CCN(C(c2ccccc2)c2sc3nc(C)nn3c2O)CC1 (stereo not drawn)	-0.0552
COc1cccc(CNCc2ccc(SC)cc2)c1OC	-0.19
CC1=C(C(N)=O)C(c2cccc(O)c2)n2nc(CCCO)nc2N1 (stereo not drawn)	0.0986
Cc1ccc(C(=O)c2coc3ccc(O)c(Cl)c23)cc1	-0.251
CCOC(=O)/C(=N\Nc1ccccc1)c1csc(Nc2ccc(C)cc2)n1	0.099
Cn1c(SCC(=O)c2ccccc2)nnc1-c1ccco1	0.0167
CCc1ccc2oc(-c3cccc(NC(=O)c4cccnc4)c3)nc2c1	0.415
Cc1nn(Cc2ccc(Cl)cc2)c(C)c1NC(=O)CSc1nc2c(c(C(F)(F)F)n1)CCc1ccccc1-2	-0.113
CCOC(=O)c1[nH]c(C)c(C(=O)N(CC)CC)c1C	0.0589
Cc1cccc(-c2nsc(SCC(=O)Nc3ccc4c(c3)OCO4)n2)c1	-0.13
COc1cc(NC(=O)Cc2cccs2)ccc1-n1cnnn1	0.734
O=C(CC(O)(C(F)(F)F)C(F)(F)F)Nc1ccc(Cl)c(Cl)c1	active: 6.91
COc1cc(NC(=S)NC(=O)c2cc(C)cc(C)c2)ccc1NC(=O)c1cccs1	0.589
COc1cc2c(cc1OC)C(C)N(C(=O)c1cc3ccccc3o1)CC2 (stereo not drawn)	-0.858
CC(=O)c1c(C)[nH]c(C(=O)COC(=O)CN(C)S(=O)(=O)c2ccc(Cl)cc2)c1C	-1.07
Cc1ccc(NC(=O)/C(=C/c2ccco2)c2ccccc2)c(C)c1	-0.364
O=C(c1ccccc1C(=O)N1CCN(c2ccccc2)CC1)N1CCN(c2ccccc2)CC1	0.0347
COC(=O)c1c2c(nc3ccccc13)CCC2	-0.063
CC1=C2C(=O)OC(c3ccoc3)C2(C)CCC1 (stereo not drawn)	-0.644
Cc1cc(Nc2c(C)n(C)n(-c3ccccc3)c2=O)c2ccccc2n1	-0.208
